Paper PMC5267525, “Sec3 promotes the initial binary t-SNARE complex assembly and membrane fusion” (Nature Communications, 2017)
These are yes or no findings as the source states them, for the method shown. Some results given as binding are weak or reduced against the parent protein; the word gives no strength.

Sequences of proteins named here, by UniProt entry; tags and fusion partners are left off. A change or cut given only in a name is not applied to a line headed by its entry.
UniProt P39926: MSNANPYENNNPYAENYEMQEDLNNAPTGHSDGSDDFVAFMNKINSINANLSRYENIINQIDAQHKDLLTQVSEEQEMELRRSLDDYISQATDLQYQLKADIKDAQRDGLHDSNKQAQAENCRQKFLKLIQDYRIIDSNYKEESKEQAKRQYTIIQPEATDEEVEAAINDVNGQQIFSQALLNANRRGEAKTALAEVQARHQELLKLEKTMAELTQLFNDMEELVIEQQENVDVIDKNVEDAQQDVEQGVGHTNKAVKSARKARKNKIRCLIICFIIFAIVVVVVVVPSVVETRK
UniProt P33332: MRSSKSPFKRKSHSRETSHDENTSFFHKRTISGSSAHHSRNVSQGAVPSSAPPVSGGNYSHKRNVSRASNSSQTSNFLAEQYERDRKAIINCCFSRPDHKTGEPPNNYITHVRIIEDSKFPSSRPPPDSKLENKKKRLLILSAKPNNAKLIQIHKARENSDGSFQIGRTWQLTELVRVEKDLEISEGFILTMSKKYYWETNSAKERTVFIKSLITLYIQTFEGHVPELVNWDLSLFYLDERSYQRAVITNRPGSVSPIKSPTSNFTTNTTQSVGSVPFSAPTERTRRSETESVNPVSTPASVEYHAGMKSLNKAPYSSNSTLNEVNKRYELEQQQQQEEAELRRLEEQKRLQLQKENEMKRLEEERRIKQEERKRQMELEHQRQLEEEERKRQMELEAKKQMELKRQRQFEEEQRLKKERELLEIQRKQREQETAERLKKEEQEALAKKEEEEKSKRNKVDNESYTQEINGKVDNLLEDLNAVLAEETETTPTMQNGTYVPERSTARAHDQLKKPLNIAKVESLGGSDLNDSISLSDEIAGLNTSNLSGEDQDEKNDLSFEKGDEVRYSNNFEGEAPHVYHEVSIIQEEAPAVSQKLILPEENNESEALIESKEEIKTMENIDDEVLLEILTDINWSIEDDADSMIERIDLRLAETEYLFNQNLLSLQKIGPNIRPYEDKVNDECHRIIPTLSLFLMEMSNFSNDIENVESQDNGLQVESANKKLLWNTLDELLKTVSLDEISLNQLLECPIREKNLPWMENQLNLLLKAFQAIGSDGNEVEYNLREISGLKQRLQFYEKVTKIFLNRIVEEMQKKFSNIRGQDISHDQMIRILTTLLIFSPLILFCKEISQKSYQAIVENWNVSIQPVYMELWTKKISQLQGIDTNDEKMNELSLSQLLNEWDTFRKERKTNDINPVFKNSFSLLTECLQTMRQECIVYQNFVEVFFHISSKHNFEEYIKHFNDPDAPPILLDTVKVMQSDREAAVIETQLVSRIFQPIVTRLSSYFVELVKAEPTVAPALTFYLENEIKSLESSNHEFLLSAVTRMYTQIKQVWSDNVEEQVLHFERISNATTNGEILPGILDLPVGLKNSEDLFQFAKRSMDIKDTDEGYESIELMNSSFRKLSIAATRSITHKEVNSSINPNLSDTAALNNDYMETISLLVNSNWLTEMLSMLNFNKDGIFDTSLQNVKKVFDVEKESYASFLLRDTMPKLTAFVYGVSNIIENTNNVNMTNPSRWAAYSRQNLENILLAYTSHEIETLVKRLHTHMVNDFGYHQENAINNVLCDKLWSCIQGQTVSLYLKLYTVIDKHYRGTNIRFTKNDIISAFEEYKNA

Biological target: Sso2 (yeast two-hybrid construct) (yeast) (UniProt P39926)
Experiment: two-hybrid; yeast 2-hybrid assay, pair-wise testing of all eight yeast exocyst subunits with Sso2; mapping with Sec3 fragments

Substance	binding
Sec3 (yeast two-hybrid construct) (from UniProt P33332 1-1336)	binds
Sec3 amino acid 1-320 (yeast two-hybrid construct) (from UniProt P33332 1-320) (domain or fragment)	binds
